Key:
human CCR8 [1] = molecular target: T1, human CCR8 (human, UniProt P51685 1-355); test: FACS, CHO-hCCR8
T1 construct: also called hCCR8; P51685_CCR8_HUMAN

cynomolgus CCR8 = molecular target: T2, cynomolgus CCR8 (cynomolgus, UniProt O97665 1-356 (rhesus entry)); test: FACS, CHO-cynoCCR8
T2 construct: also called cynoCCR8; G7NYJ2_CCR8_MACFA

human CCR8 [2] = molecular target: T1, human CCR8; test: FACS, HuT78 (endogenous hCCR8)

Chain of cynomolgus CCR8 (O97665 other isoform, or with tags, fused parts or gaps): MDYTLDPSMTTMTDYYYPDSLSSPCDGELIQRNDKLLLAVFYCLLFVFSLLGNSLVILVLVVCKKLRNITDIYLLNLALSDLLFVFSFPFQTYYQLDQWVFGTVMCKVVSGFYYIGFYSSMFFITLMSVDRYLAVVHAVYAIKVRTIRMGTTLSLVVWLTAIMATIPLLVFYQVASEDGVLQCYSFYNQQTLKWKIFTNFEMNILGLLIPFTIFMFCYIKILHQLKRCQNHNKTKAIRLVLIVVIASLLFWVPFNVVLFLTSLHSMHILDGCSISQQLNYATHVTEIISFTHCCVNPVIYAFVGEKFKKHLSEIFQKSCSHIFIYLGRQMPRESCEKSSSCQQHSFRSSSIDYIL

Binder | EC50 (human CCR8 [1]) [nM] | EC50 (cynomolgus CCR8) [nM] | EC50 (human CCR8 [2]) [nM]
TPP-27496 (antibody, human IgG1, lambda, 70% afucosylated, also called TPP-27496 (LS); copies: 2 + 2) heavy: EVQLLESGGGLVQPGGSLRLSCAASGFTFSSYGMHWVRQAPGKGLEWVSAINWNGGSTGYADSVKGRFTISRDNSKNTLYLQMNSLRAEDTAVYYCARGHHSGYDGRFFDYWGQGTLVTVSS[here human IgG1 constant region with changes without letters] light: QSVLTQPPSVSGAPGQRVTISCTGSSSNIGAGYNVHWYQQLPGTAPKLLIYTNNRRPSGVPDRFSGSKSGTSASLAISGLRSEDEADYYCAAWDASLSGWVFGGGTKLTVLGQPKAAPSVTLFPPSSEELQANKATLVCLISDFYPGAVTVAWKADSSPVKAGVETTTPSKQSNNKYAASSYLSLTPEQWKSHRSYSCQVTHEGSTVEKTVAPTECS |  | 0.455 | 
TPP-27478 (antibody, human IgG1, lambda, also called 18206-gl11-gl25-hIgG1Lambda; copies: 2 + 2) heavy: EVQLLESGGGLVQPGGSLRLSCAASGFTFSSYGMHWVRQAPGKGLEWVSAINWNGGSTGYADSVKGRFTISRDNSKNTLYLQMNSLRAEDTAVYYCARGHHSGYDGRFFDYWGQGTLVTVSS[here human IgG1 constant region without letters] light: QSVLTQPPSASGAPGQRVTISCTGSSSNIGAGYNVHWYQQLPGTAPKLLIYTNNRRPSGVPDRFSGSKSGTSASLAISGLRSEDEADYYCAAWDASLSGWVFGGGTKLTVLGQPKAAPSVTLFPPSSEELQANKATLVCLISDFYPGAVTVAWKADSSPVKAGVETTTPSKQSNNKYAASSYLSLTPEQWKSHRSYSCQVTHEGSTVEKTVAPTECS |  | 1.02 | 
TPP-18429 (antibody, human IgG1, lambda, also called 18206-gl10-hIgG1Lambda; copies: 2 + 2) heavy: EVQLLESGGGLVQPGGSLRLSCAASGFTFSHYGMHWVRQAPGKGLEWVSGINWNGGSTGYADSVKGRFTISRDNSKNTLYLQMNSLRAEDTAVYYCARGHHSGYDGRFFDYWGQGTLVTVSS[here human IgG1 constant region without letters] light: QSVLTQPPSVSGTPGQRVTISCTGSSSNIGAGYNVHWYQQLPGTAPKLLIYTNNRRPSGVPDRFSGSKSGTSASLAISGLRSEDEADYYCAAWDASLSGWVFGGGTKLTVLGQPKAAPSVTLFPPSSEELQANKATLVCLISDFYPGAVTVAWKADSSPVKAGVETTTPSKQSNNKYAASSYLSLTPEQWKSHRSYSCQVTHEGSTVEKTVAPTECS | 1.48 | 2.25 | 29.3

The next binders have a lower EC50 (cynomolgus CCR8) than those just listed; values first:

EC50 (human CCR8 [1]) [nM] | EC50 (cynomolgus CCR8) [nM] | EC50 (human CCR8 [2]) [nM] | Binder
 | 0.418 |  | TPP-27477 (antibody, human IgG1, lambda, also called 18206-gl10-gl25-hIgG1Lambda; copies: 2 + 2) heavy: EVQLLESGGGLVQPGGSLRLSCAASGFTFSSYGMHWVRQAPGKGLEWVSAINWNGGSTGYADSVKGRFTISRDNSKNTLYLQMNSLRAEDTAVYYCARGHHSGYDGRFFDYWGQGTLVTVSS[here human IgG1 constant region without letters] light: QSVLTQPPSVSGTPGQRVTISCTGSSSNIGAGYNVHWYQQLPGTAPKLLIYTNNRRPSGVPDRFSGSKSGTSASLAISGLRSEDEADYYCAAWDASLSGWVFGGGTKLTVLGQPKAAPSVTLFPPSSEELQANKATLVCLISDFYPGAVTVAWKADSSPVKAGVETTTPSKQSNNKYAASSYLSLTPEQWKSHRSYSCQVTHEGSTVEKTVAPTECS
2.56 | 0.377 | 5.02 | TPP-21047 (antibody, human IgG1, lambda, also called 17578-gl81-hIgG1-wt-Lambda; copies: 2 + 2) heavy: EVQLLESGGGLVQPGGSLRLSCAASGFTFSSAWMSWVRQAPGKGLEWVSGISWSGGRTGYALSVKGRFTISRDNSKNTLYLQMNSLRAEDTAVYYCARTYSGHYGPYFDYWGQGTLVTVSS[here human IgG1 constant region without letters] light: QSVLTQPPSASGTPGQRVTISCSGSSSNIGSHTVNWYQQLPGTAPKLLIYRNNQRPSGVPDRFSGSKSGTSASLAISGLRSEDEADYYCAAWDDSLNGWVFGGGTKLTVLGQPKAAPSVTLFPPSSEELQANKATLVCLISDFYPGAVTVAWKADSSPVKAGVETTTPSKQSNNKYAASSYLSLTPEQWKSHRSYSCQVTHEGSTVEKTVAPTECS

Reference: patent publication US20230250178A1 (published 2023)
